“And” between values parts separate entries of the source, which are not always exact repeats. Identical values can stand only once. Inconclusive means that the source gave no clear call. Such entries were picked first, then a sample of the others. For some assays here: A potency beside an inconclusive call is a rough fit, not a confirmed value. The source made the active and inactive calls. Calls follow the shape of the dose curve; as a rule, active = well fitted curve in the direction sought with a large enough effect; inconclusive = small, poorly fitted or top-dose-only effect, or another doubt; inactive = no such curve, though single readings can be large; an effect the other way counts as inactive or inconclusive.
Columns and labels:
[1] = P-glycoprotein substrates identified in KB-8-5-11 adenocarcinoma cell line, qHTS therapeutic library screen (AID 1346987); also: nearly all actives have a fitted effect of over 65% in size
Method in brief: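 P-gp-mediated resistance screen: KB-8-5-11 cells treated 72 h with compounds in dose-response. CellTiter-Glo viability.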

[2] = Primary qHTS for inhibitors of nuclear receptor binding SET domain protein 2 (NSD2) in an RCH-ACV wild type WT cells (2C) (AID 1645877); conditions: activity change, negative = cell killing: at 44.9 µM (top of the series) unless noted; also: nearly all actives have a fitted effect of over 70% in size; as to activity change, negative = cell killing: % is scaled to controls: 0 for no effect and ±100 for the full control effect
[3] = Primary fluorescence-based thiol-reactive (MSTI) qHTS assay for identification of artifact compounds. (AID 1845221);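 also: thiol-reactive compounds lower the probe fluorescence signal; nearly all actives have a fitted effect of over 65% in size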
Method in brief: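 Reactivity toward the thiol probe MSTI (4 uM) is scored by fluorescence at Ex/Em 525/598 nm after 1 h at room temperature. Acetyl-MSTI and MSTI define the activity scale.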

HaCat = assay: Cytotoxic Profiling of Annotated Libraries Using Quantitative High-Throughput Screening (AID 1296008); conditions: Five cell lines viability, CellTiter-Glo ATP luminescence, 48-72 h; max response: hits give low values; also: nearly all actives have a fitted effect of over 60% in size; as to max response: % is scaled to controls: 0 for no effect and ±100 for the full control effect
Method in brief: (§1)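 Cytotoxicity was measured as CellTiter-Glo ATP luminescence, read after 10 min at room temperature. Compound treatment of the cells lasted 48 or 72 hr at 37 degrees Celsius in a qHTS format.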

KB-3-1 = assay: as above; conditions: Five cell lines viability, CellTiter-Glo ATP luminescence, 48-72 h; max response: hits give low values
Method in brief: as §1

C33A = assay: Primary qHTS to identify gynecologic anti-cancer compounds using libraries of approved drugs and bioactive compounds (AID 1345084); conditions: Gynecologic cancer cell panel viability, ATPlite luminescence, 48 h; series mostly up to 57.5 µM; also: nearly all actives have a fitted effect of over 55% in size; as to activity change, negative = cytotoxicity: % is scaled to controls: 0 for no effect and ±100 for the full control effect
Method in brief: (§2)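 Measured: luminescence after ATPlite addition (15 min, RT). Exposure: 48 h, 37 C, 5% CO2.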

CAOV3 = assay: as above; conditions: Gynecologic cancer cell panel viability, ATPlite luminescence, 48 h; activity change, negative = cytotoxicity: at 57.5 µM (top of the series)
Method in brief: as §2

CASKI = assay: as above; conditions: Gynecologic cancer cell panel viability, ATPlite luminescence, 48 h; series mostly up to 57.5 µM
Method in brief: as §2

Es-2 = assay: as above; conditions: Gynecologic cancer cell panel viability, ATPlite luminescence, 48 h; series mostly up to 57.5 µM
Method in brief: as §2

HeLa = assay: as above; conditions: Gynecologic cancer cell panel viability, ATPlite luminescence, 48 h; activity change, negative = cytotoxicity: at 57.5 µM (top of the series)
Method in brief: as §2

Hek293T = assay: as above; conditions: Gynecologic cancer cell panel viability, ATPlite luminescence, 48 h, control line for the selectivity index; activity change, negative = cytotoxicity: at 57.5 µM (top of the series) unless noted
Method in brief: as §2

JEG-3 = assay: as above; conditions: Gynecologic cancer cell panel viability, ATPlite luminescence, 48 h; series mostly up to 57.5 µM
Method in brief: as §2

PA-1 = assay: as above; conditions: Gynecologic cancer cell panel viability, ATPlite luminescence, 48 h; series mostly up to 57.5 µM
Method in brief: as §2

SKOV3 = assay: as above; conditions: Gynecologic cancer cell panel viability, ATPlite luminescence, 48 h; series mostly up to 57.5 µM
Method in brief: as §2

Tov-21-G = assay: as above; conditions: Gynecologic cancer cell panel viability, ATPlite luminescence, 48 h; activity change, negative = cytotoxicity: at 57.5 µM (top of the series) unless noted
Method in brief: as §2

Tov112D = assay: as above; conditions: Gynecologic cancer cell panel viability, ATPlite luminescence, 48 h; series mostly up to 57.5 µM
Method in brief: as §2

[4] = Primary qHTS for inhibitors of nuclear receptor binding SET domain protein 2 (NSD2) in an isogenic RCH-ACV NSD2 p.E1099K mutant (9B) (AID 1645876); also: nearly all actives have a fitted effect of over 70% in size
OV90 = assay: Primary qHTS to identify gynecologic anti-cancer compounds using libraries of approved drugs and bioactive compounds (AID 1345084); conditions: Gynecologic cancer cell panel viability, ATPlite luminescence, 48 h; series mostly up to 57.5 µM; also: nearly all actives have a fitted effect of over 55% in size; as to activity change, negative = cytotoxicity: % is scaled to controls: 0 for no effect and ±100 for the full control effect
Method in brief: as §2

[5] = Primary redox qHTS assay for identification of artifact compounds. (AID 1845223); conditions: Amplex Red/HRP redox cycling with DTT, fluorescence; redox activity (% of DA3003): at 53.8 µM (top of the series);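 as to redox activity (% of DA3003): 0% = DMSO and 100% = reference compound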
Method in brief: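 Amplex Red (25 uM) and HRP (250 mU/mL) in HBSS, with compounds for 15 min, then 250 uM DTT for 30 min, room temperature, dark. Fluorescence 525/598 nm read; normalized to DMSO and 10 uM DA3003; Hill fit.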
Potency is read from the fitted curve at half-maximal effect; tags tell the direction and shape of the fitted curve.

O=S(=O)(NCC1CC1)c1ccc(Nc2nccc(N3CCCc4cc(O)ccc43)n2)cc1
active: Potency [1] 9.2 µM | Potency [2] 1.15 µM | Potency (KB-3-1) 14.6 µM | Potency (C33A) 31.6 µM | Potency (PA-1) 10 µM
inconclusive: Potency [3] 2.99 µM [inhibitor, partial curve] | Potency (HaCat) 29.1 µM [inhibitor, single point] | Potency (CAOV3) 3.55 µM [cytotoxic, partial curve, poor fit] | Potency (CASKI) 25.1 µM [cytotoxic, partial curve, poor fit] | Potency (Es-2) 20 µM [cytotoxic, partial curve] | Potency (HeLa) 11.2 µM [cytotoxic, partial curve] | Potency (Hek293T) 28.2 µM [cytotoxic, partial curve, poor fit] | Potency (JEG-3) 44.7 µM [cytotoxic, single point] | Potency (SKOV3) 39.8 µM [cytotoxic, single point] | Potency (Tov-21-G) 25.1 µM [cytotoxic, single point] | Potency (Tov112D) 31.6 µM [cytotoxic, partial curve, poor fit]

CC1CCC2(C(=O)O)CCC3(C)C(=CCC4C5(C)CCC(OC(=O)/C=C/c6ccccc6)C(C)(C)C5CCC43C)C2C1C (stereo not drawn)
inconclusive: Potency (HaCat) 0.0048 µM [inhibitor, full curve, poor fit]
inactive: Potency [4] | Potency [2] | max response (KB-3-1) 3.54% | Potency (C33A)

C=C1C[C@@]23CCC4[C@@](C)(CCC[C@@]4(C)C(=O)OC)C2CC[C@@H]1C3 (stereo partly drawn)
inconclusive: Potency (KB-3-1) 3.21 µM [inhibitor, single point]
inactive: Potency [2] | outcome (HaCat) | Potency (C33A)

CO[C@H]1/C=C/[C@@](C)(O)/C=C/C(=O)O[C@H](C)[C@@H](C)CC/C=C/1C
active: Potency (CASKI) 11.2 µM | Potency (SKOV3) 12.6 µM | Potency (Tov-21-G) 10 µM
inactive: max response (KB-3-1) -8.74%
inconclusive: Potency [1] 22.7 µM [inhibitor, partial curve, poor fit] | Potency [2] 8.01 µM [inhibitor, partial curve, poor fit] | Potency (HaCat) 0.0032 µM [inhibitor, full curve, poor fit] | Potency (C33A) 14.1 µM [cytotoxic, single point] | Potency (CAOV3) 28.2 µM [cytotoxic, single point] | Potency (Es-2) 22.4 µM [cytotoxic, single point] | Potency (Hek293T) 22.4 µM [cytotoxic, single point] | Potency (JEG-3) 22.4 µM [cytotoxic, single point] | Potency (OV90) 22.4 µM [cytotoxic, single point] | Potency (PA-1) 31.6 µM [cytotoxic, single point] | Potency (Tov112D) 15.8 µM [cytotoxic, partial curve, poor fit]

C=C(C)C(=O)O[C@H]1[C@H]2C(=C)C(=O)O[C@@H]2C[C@@H](C)[C@@H]2O[C@@H]2C(=O)[C@](C)(O)[C@@H]1OC(=O)C(=C)C
inactive: Potency [3]
inconclusive: Potency [1] 8.93 µM [inhibitor, single point] | Potency (HaCat) 10 µM [inhibitor, single point] | Potency (KB-3-1) 14.2 µM [inhibitor, single point] | Potency (CAOV3) 11.2 µM [cytotoxic, partial curve, poor fit] | Potency (HeLa) 17.8 µM [cytotoxic, single point] | Potency (OV90) 17.8 µM [cytotoxic, single point] | Potency (PA-1) 11.2 µM [cytotoxic, single point] | Potency (Tov-21-G) 5.62 µM [cytotoxic, partial curve, poor fit] | Potency (Tov112D) 20 µM [cytotoxic, single point]
active: Potency [2] 1.26 µM | Potency (C33A) 10 µM | Potency (CASKI) 10 µM | Potency (Es-2) 7.94 µM | Potency (Hek293T) 2.82 µM | Potency (JEG-3) 12.6 µM | Potency (SKOV3) 10 µM

CNS(=O)(=O)c1ccccc1Nc1nc(Nc2ccc(N3CCN(C)CC3)cc2OC)ncc1Cl
inconclusive: Potency (C33A) 28.2 µM [cytotoxic, single point] | Potency (CAOV3) 1.78 µM [cytotoxic, full curve, poor fit] | Potency (JEG-3) 39.8 µM [cytotoxic, single point] | Potency (OV90) 2.24 µM [cytotoxic, partial curve, poor fit] | Potency (PA-1) 1.12 µM [cytotoxic, full curve, poor fit] | Potency (Tov-21-G) 2.51 µM [cytotoxic, full curve, poor fit]
active: Potency [1] 0.651 µM | Potency [2] 0.649 µM | Potency [3] 2.38 µM | Potency (HaCat) 2.59 µM | Potency (KB-3-1) 0.92 µM | Potency (CASKI) 7.08 µM | Potency (Es-2) 12.6 µM | Potency (Hek293T) 12.6 µM | Potency (SKOV3) 3.55 µM | Potency (Tov112D) 10 µM

COc1cc(Br)c(S(=O)(=O)Nc2ccc(Cl)c(O[C@@H]3CCN(C)C3)c2)cc1OC
inconclusive: Potency [1] 5.17 µM [inhibitor, partial curve] | Potency [5] 33.6 µM [activator, partial curve, poor fit] | Potency (KB-3-1) 5.17 µM [inhibitor, partial curve] | Potency (C33A) 14.1 µM [cytotoxic, single point] | Potency (CASKI) 39.8 µM [cytotoxic, single point] | Potency (Hek293T) 8.91 µM [cytotoxic, partial curve] | Potency (OV90) 39.8 µM [cytotoxic, single point] | Potency (PA-1) 39.8 µM [cytotoxic, single point] | Potency (SKOV3) 31.6 µM [cytotoxic, single point] | Potency (Tov-21-G) 25.1 µM [cytotoxic, single point]
inactive: outcome (HaCat)

COc1ccccc1N1CCN(c2ncnc3n[nH]c(Br)c23)CC1
inconclusive: Potency [1] 18.4 µM [inhibitor, single point] | Potency (HaCat) 13 µM [inhibitor, partial curve] | Potency (KB-3-1) 29.1 µM [inhibitor, single point] | Potency (HeLa) 31.6 µM [cytotoxic, single point]

C=CC1(C)CC(O)C2(CCC3C(C)(C(=O)O)CCCC3(C)C2=O)C1 (stereo not drawn)
inactive: max response (HaCat) -1.18% | outcome (KB-3-1) | Potency (CAOV3)

C[C@H](Nc1ncnc2nc[nH]c12)c1cc2cccc(Cl)c2c(=O)n1-c1ccccc1
active: Potency [2] 7.28 µM and 4.68 µM
inconclusive: Potency (HaCat) 0.0058 µM [inhibitor, full curve, poor fit] | Potency (KB-3-1) 29.1 µM [inhibitor, single point] | Potency (C33A) 22.4 µM [cytotoxic, partial curve, poor fit] | Potency (CASKI) 22.4 µM [cytotoxic, partial curve, poor fit] | Potency (Hek293T) 31.6 µM [cytotoxic, single point] | Potency (PA-1) 35.5 µM [cytotoxic, single point] | Potency (SKOV3) 14.1 µM [cytotoxic, partial curve] | Potency (Tov-21-G) 39.8 µM [cytotoxic, partial curve, poor fit]
inactive: Potency [3] | Potency [5]

C=CC(=O)Nc1cccc(Oc2nc(Nc3ccc(N4CCN(C)CC4)cc3)ncc2Cl)c1
active: Potency [1] 3.32 µM and 7.31 µM | Potency [4] 728 nM and 2.09 µM | Potency [2] 649 nM and 1.32 µM | Potency [3] 1.89 µM | Potency (HaCat) 1.18 µM and 2.31 µM | Potency (KB-3-1) 2.96 µM and 5.8 µM | Potency (CAOV3) 7.94 µM | Potency (CASKI) 10 µM | Potency (SKOV3) 3.16 µM
inconclusive: Potency (C33A) 5.01 µM [cytotoxic, full curve, poor fit] | Potency (Hek293T) 22.4 µM [cytotoxic, single point]

Cc1cc(Nc2ncc3cc(-c4c(Cl)cccc4Cl)c(=O)n(C)c3n2)ccc1F
active: Potency [1] 1.3 µM | Potency (HaCat) 5.8 µM | Potency (KB-3-1) 2.59 µM | Potency (CAOV3) 3.16 µM | Potency (Es-2) 7.94 µM | Potency (PA-1) 3.98 µM | Potency (SKOV3) 3.55 µM | Potency (Tov-21-G) 3.98 µM | Potency (Tov112D) 3.55 µM
inactive: Potency [3]
inconclusive: Potency (C33A) 14.1 µM [cytotoxic, partial curve] | Potency (CASKI) 6.31 µM [cytotoxic, full curve] | Potency (Hek293T) 6.31 µM [cytotoxic, partial curve, poor fit] | Potency (JEG-3) 25.1 µM [cytotoxic, partial curve] | Potency (OV90) 6.31 µM [cytotoxic, partial curve, poor fit]
